Read counts are not given, so values of variants with three or more changes are uncertain.

B1: LINE1-mini (parent)
chain: GGCAGAGCUCAACACAGCGUGGCAAAGUGGCUGUGGCUAGACUGCC

The variants in the data set derive from B1. Nature of the data set: self-cleavage, relative activity (ratio to wild type); higher = more cleavage; in vitro, sequencing; the parent is a self-cleaving ribozyme.
As for A6C A26C U28A, the self-cleavage was found to be 0.23.
With A6C U28G G40C, the self-cleavage was determined as 0.05.
As for A6C A14U C18A U20G G21A, the self-cleavage was determined as 0.04.
Turning to A6G G7A U28A, the self-cleavage amounted to 0.06.
Take A6C C8G G19A C31A C37A A39C A41G: the self-cleavage amounted to 0.01.
The same measure for A6C G7C C23G G44A: 0.03; for A6C G19U C45U: 0.39.
In the case of A6G C8G A25C U32C A39G, the self-cleavage came out at 0.07.
Take A6C U9C C10U C31U: the self-cleavage worked out at 0.02.
A6G A25G G36A A39C A41U: the self-cleavage turned out to be 0.58.
The same measure for A6C G19U G21U: 0.24; for A6G C10G A12U C13G G36U: 0.02.
Regarding A6C A12C G27C, the self-cleavage was 0.03.
Consider A6G C13A U28A C37U, for which the self-cleavage turned out to be 0.05.
As to A6C C15A G19U G30C U32G, the self-cleavage is 0.01.
As to A6C C15U G17A A25U C31A G40C, the self-cleavage turned out to be 0.03.
As for A6G C8U C10G A16U G17A, the self-cleavage was found to be 0.02.
Take A6G C15G A25U G29A C31U G40U: the self-cleavage turned out to be 0.01.
Regarding A6C C8U C18U A26G G35C, the self-cleavage was determined as 0.06.
For A6C G7U C42U, the self-cleavage came to 0.05.
Take A6G G21C G22U: the self-cleavage was 0.02.
On to A6G U9G A25U G40A, for which the self-cleavage was 0.02.
For A6C G7C C23A C45G the value was 0.06.
The same measure for A6G C23A C31G A41U: 0.08; for A6G G17U A39U C45U: 0.02.
For A6C G7U C8A A25U G29C the value was 0.02; for A6G C10A A25G U38C G40U C46A, 0.02.
As for A6C G19U G29U A39U, the self-cleavage was 0.64.
On to A6G C8U C13G C42U, for which the self-cleavage is 0.08.
Regarding A6C C10U C13U G17U C18U G22A U43A, the self-cleavage stood at 0.02.
Regarding A6G U28A U38A, the self-cleavage was 0.03.
A6G C18U U38C A41C C45U: the self-cleavage was 0.05.
A6G U34C G36U C46U: the self-cleavage was 0.13.
For the variant A6C G7C U28C C45U, the self-cleavage amounted to 0.15.
For the variant A6C G21C A25C, the self-cleavage came to 0.15.
As to A6G A12U C15G, the self-cleavage is 0.01.
The same measure for A6G U9C A16C G36A C46A: 0.01; for A6C C15U U32C C42G: 0; for A6G A26C G35U U38C: 0.01.
The same measure for A6G C15U U38C A41U C45G C46A: 0; for A6G U32A G35A A41G: 0.24.
A6G G7U U43C: the self-cleavage came to 0.02.
With A6G A16C G17C G27A G44C, the self-cleavage came to 0.02.
A6G U9C C31G: the self-cleavage amounted to 0.
As for A6C U20A A41U, the self-cleavage was 0.55.
For A6G C10A U34A the value was 0.07.
As to A6G C15U C45A, the self-cleavage stood at 0.04.
For A6C G33A C46U, the self-cleavage came to 0.11.
A6C C31U G33U: the self-cleavage worked out at 0.03.
In the case of A6G G22U A26C A41C C45U, the self-cleavage amounted to 0.21.
Take A6C C8U A16G: the self-cleavage was 0.03.
In the case of A6G A14C G40U A41C, the self-cleavage was 0.17.
For A6G G30C G36U C42A G44A the value was 0.02; for A6C C13G A24G U34G, 0.02.
On to A6G U9G U32G A41U, for which the self-cleavage amounted to 0.15.
For A6C C15A A25C C42A the value was 0.02; for A6G G33A C37U, 0.01.
As for A6G C18G C42A C46G, the self-cleavage came out at 0.04.
Regarding A6U A11C C45U, the self-cleavage came to 0.03.
Regarding A6U A11C C15A A25G C31U U32G C37U A41U, the self-cleavage worked out at 0.
In the case of A6G C8G C10G C13U C37A, the self-cleavage came to 0.
With A6G A16G A26U G40A, the self-cleavage was determined as 0.02.
The same measure for A6C C8G G35C G44A: 0.01; for A6C C13G U20A G44A: 0.05; for A6C C8G G19C U20G: 0.04.
Consider A6C G21U G27C G33U, for which the self-cleavage is 0.04.
As to A6G A12U G17C U32G C37A, the self-cleavage amounted to 0.03.
With A6C U28G G35U, the self-cleavage is 0.07.
Take A6G C8U C42G: the self-cleavage was found to be 0.05.
A6C G7U G22A: the self-cleavage stood at 0.24.
The same measure for A6G C10G G22U A39U C45U: 0.02.
On to A6C A41U C46A, for which the self-cleavage came out at 0.14.
As for A6U A11C A26U C31U, the self-cleavage was 0.02.
The same measure for A6G U9G A26U G27A: 0.03.
On to A6C A14C G17U G21A, for which the self-cleavage worked out at 0.01.
As to A6G A25G G40C, the self-cleavage came out at 0.01.
In the case of A6C G7U C37G A39C C45U, the self-cleavage stood at 0.11.
For the variant A6C C15G A25G, the self-cleavage is 0.01.
Turning to A6G C8U A16C A26C G35C, the self-cleavage is 0.01.
As for A6G C15G G21C U32C G33C, the self-cleavage was found to be 0.01.
Consider A6G U9C U32C G36U, for which the self-cleavage is 0.03.
The same measure for A6C A25C C31G: 0.05; for A6C C8G G22U C46G: 0.02.
For the variant A6G C15U C42G G44A, the self-cleavage stood at 0.02.
The same measure for A6G G7U C31G G44U C45A: 0.01.
On to A6G C13A G30U U34A C46A, for which the self-cleavage came to 0.
Regarding A6C A11G G27U G36U C42G C45G, the self-cleavage was 0.
On to A6G G22U C45A C46U, for which the self-cleavage is 0.17.
Regarding A6C G36C C37G, the self-cleavage came out at 0.53.
In the case of A6C G7U C13U, the self-cleavage was 0.21.
For A6G C15A G19U G29U G36A C37U G40A U43A, the self-cleavage was found to be 0.04.
For the variant A6G U9G C37U, the self-cleavage was found to be 0.03.
In the case of A6C A12G A39U, the self-cleavage was 0.06.
Consider A6G A11G U20C G35U C45U, for which the self-cleavage stood at 0.01.
Turning to A6G C8U U9A G17A, the self-cleavage worked out at 0.05.
For A6G G19U G22C the value was 0.08; for A6C C15A G29C G40A, 0.18.
Regarding A6C G21U G27C, the self-cleavage turned out to be 0.06.
Take A6G C10A G44C: the self-cleavage came to 0.03.
For the variant A6C G21C A41C, the self-cleavage stood at 0.06.
For A6G C8A C18A G29C U38A C42A the value was 0.02; for A6C G7U C10G A11U C18A U28C, 0.01.
For A6C A12G G30C, the self-cleavage is 0.02.
With A6C C31G G40C C42A, the self-cleavage worked out at 0.01.
On to A6C C37G U43C G44A, for which the self-cleavage stood at 0.04.
Take A6C C10G G27C A39G: the self-cleavage turned out to be 0.
The same measure for A6C G36C U38C: 0.02; for A6C C10U A16G C31G: 0.01.
For the variant A6G C8G C10A A24G, the self-cleavage was 0.01.
For the variant A6G C8A A39G A41U, the self-cleavage was determined as 0.02.
In the case of A6C G27U A41U C45U, the self-cleavage was determined as 0.03.
With A6G A25G G33U C42G, the self-cleavage was 0.01.
A6G C8A G35U C37A G40U: the self-cleavage came out at 0.01.
Take A6G C8U U9A U28G U34A C42A: the self-cleavage was found to be 0.03.
For A6G U20C A26C U38C the value was 0; for A6G C23A G29U G40A, 0.02; for A6G U9G C37G C46G, 0.05.
For A6G C8G U28A, the self-cleavage came to 0.05.
For A6G C8U G27C U32C the value was 0.02.
Turning to A6G U20G C37A A39C, the self-cleavage is 0.03.
Consider A6C G17U U20G C23U G36C A41U, for which the self-cleavage was 0.04.
Regarding A6G G29U G44A, the self-cleavage came to 0.08.
Take A6G G22A C23G C37G: the self-cleavage stood at 0.01.
Regarding A6G C18U A25G U32A A41U, the self-cleavage was found to be 0.03.
On to A6C G33C G36A U38A, for which the self-cleavage is 0.06.
Turning to A6G G21U G29C A41C, the self-cleavage was 0.08.
For A6C C37G C46G, the self-cleavage is 0.04.
As to A6G C18G G19A U38A, the self-cleavage was 0.01.
With A6G G27U U43C, the self-cleavage amounted to 0.04.
Take A6C C15U G35C: the self-cleavage amounted to 0.03.
For A6G C8A A12C, the self-cleavage came out at 0.02.
A6C G19A A26C G29C G33A G35U A39C: the self-cleavage stood at 0.08.
The same measure for A6G G21U G27C: 0.1; for A6C G7A A24U U28G U34A C37G A41C C45G: 0.02.
As for A6G G17U C18A, the self-cleavage came out at 0.
For A6C G30C G40A the value was 0.25.
Take A6G A14G C37G A41U: the self-cleavage amounted to 0.
For A6G G17A G44U, the self-cleavage was 0.05.
The same measure for A6C A11G A26U G27U: 0.01.
For A6G G21U G29C C42U the value was 0.03; for A6C C18A A26C G27A G29A, 0.49.
As to A6C U9A C13A, the self-cleavage was 0.13.
As to A6C U9C A14C, the self-cleavage was determined as 0.03.
For A6G G29A C37G, the self-cleavage worked out at 0.01.
A6G A11U G17A G36U: the self-cleavage was 0.05.
For A6C U9C G35A C45U the value was 0.03; for A6C A25U C31U, 0.24; for A6C G17A G27C C46G, 0.04.
For A6C C15U U28G G36U the value was 0.14; for A6C A11C G33A G44A C46A, 0.
The same measure for A6C G30C G35U G36C U38A: 0.02.
For the variant A6G A12G C15U G19C U28C C31G C42U C45U C46U, the self-cleavage worked out at 0.01.
As to A6G C18A G29C, the self-cleavage was 0.23.
Take A6G A11C G40A C46G: the self-cleavage is 0.02.
On to A6C U20A G22U, for which the self-cleavage turned out to be 1.14.
For A6C C15G A16U G17U U28C U32A the value was 0.05; for A6C A16C G17U C18A C37U, 0.11.
For A6G A25G A26U the value was 0.05.
Regarding A6G A14U A24G C42A, the self-cleavage worked out at 0.06.
A6G C15A A24C U32C: the self-cleavage came to 0.21.
A6G C8U G21C G36A A41U C46G: the self-cleavage was found to be 0.06.
For A6G C18A U28G G44U the value was 0.05; for A6C C10U C46G, 0.05.
On to A6C C10U C13A C18G G19C A25C A26C G29C C45A, for which the self-cleavage was 0.01.
Consider A6G C10G G19A C31U U32G, for which the self-cleavage came out at 0.
On to A6C C15U G44A, for which the self-cleavage came to 0.07.
For A6C C8G A26G G29U G35C, the self-cleavage came out at 0.01.
